# In the supplement of paper PMC12217912:
# This is one part of the list. The full chains were built here from the parent and the listed change. Values near 0.05 are background.
# B1: TEV protease; numbered along this chain (parent)
# chain: MGESLFKGPRDYNPISSSICHLTNESDGHTTSLYGIGFGPFIITNKHLFRRNNGTLVVQSLHGVFKVKDTTTLQQHLVDGRDMIIIRMPKDFPPFPQKLKFREPQREERICLVTTNFQTKSMSSMVSDTSCTFPSGDGIFWKHWIQTKDGQCGSPLVSTRDGFIVGIHSASNFTNTNNYFTSVPKNFMELLTNQEAQQWVSGWRLNADSVLWGGHKVFMVKPEEPFQPVKEATQL
# Variants of: B1
# Assay: raw area under fraction-flipped curve 0-4 h after induction (AUC4h, not background-subtracted), DNA-recorder readout of cleavage of the substrate (dimensionless); higher = more cleavage of the substrate by the protease variant
# Details: temperature: 34 °C; time window: 0-4 h after rhamnose induction
# Procedure: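 In vivo DNA recorder in E. coli TOP10(DE3) ΔrhaA at 34 °C. Each TEVp single-site mutant (parent TEVp 0) is paired with a single-site variant of the 7-mer TEVs (canonical ENLYFQ|S). The substrate sits between flexible linkers in a Bxb1-sfGFP-TEVs-SsrA fusion, so cleavage stabilises Bxb1 and speeds flipping of a recombination array, read by NGS. The value is the raw area under the fraction-flipped curve over 0-4 h after rhamnose induction (AUC4h), with ≥20 reads per time point. It is not background-subtracted; inactive controls average about 0.047.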
# 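Note: Bxb1 expression induced with 0.2% (w/v) L-rhamnose at OD600 near 0.5, cultures sampled hourly, flipped fraction per protease–substrate barcode pair counted by paired-end Illumina sequencing.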
Variant,area with substrate EALYFQS,area with substrate ECLYFQS,area with substrate EDLYFQS,area with substrate EGLYFQS,area with substrate EHLYFQS,area with substrate EILYFQS,area with substrate EKLYFQS,area with substrate ELLYFQS,area with substrate EMLYFQS,area with substrate EPLYFQS,area with substrate EQLYFQS,area with substrate ERLYFQS,area with substrate ESLYFQS,area with substrate EVLYFQS,area with substrate EWLYFQS,area with substrate EYLYFQS,area with substrate EELYFQS,area with substrate EFLYFQS,area with substrate ETLYFQS
MGESLFKGPRDYNPISSSICHLTNESDGHTCSLYGIGFGPFIITNKHLFRRNNGTLVVQSLHGVFKVKDTTTLQQHLVDGRDMIIIRMPKDFPPFPQKLKFREPQREERICLVTTNFQTKSMSSMVSDTSCTFPSGDGIFWKHWIQTKDGQCGSPLVSTRDGFIVGIHSASNFTNTNNYFTSVPKNFMELLTNQEAQQWVSGWRLNADSVLWGGHKVFMVKPEEPFQPVKEATQL [T31C],0.129,0.168,0.158,0.117,0.119,0.1,0.124,0.106,0.122,0.116,0.161,0.107,0.122,0.108,0.11,0.145,,,
MGESLFKGPRDYNPISSSICHLTNESDGHTGSLYGIGFGPFIITNKHLFRRNNGTLVVQSLHGVFKVKDTTTLQQHLVDGRDMIIIRMPKDFPPFPQKLKFREPQREERICLVTTNFQTKSMSSMVSDTSCTFPSGDGIFWKHWIQTKDGQCGSPLVSTRDGFIVGIHSASNFTNTNNYFTSVPKNFMELLTNQEAQQWVSGWRLNADSVLWGGHKVFMVKPEEPFQPVKEATQL [T31G],0.0736,0.0965,0.0762,0.0763,0.0831,0.0778,0.0799,0.0724,0.086,0.0808,0.0773,0.0827,0.0809,0.0617,0.0767,,0.0931,0.0776,0.0915
MGESLFKGPRDYNPISSSICHLTNESDGHTRSLYGIGFGPFIITNKHLFRRNNGTLVVQSLHGVFKVKDTTTLQQHLVDGRDMIIIRMPKDFPPFPQKLKFREPQREERICLVTTNFQTKSMSSMVSDTSCTFPSGDGIFWKHWIQTKDGQCGSPLVSTRDGFIVGIHSASNFTNTNNYFTSVPKNFMELLTNQEAQQWVSGWRLNADSVLWGGHKVFMVKPEEPFQPVKEATQL [T31R],0.0788,0.0649,,,0.0822,0.0662,,0.0558,,0.0809,0.0626,0.0573,0.0667,,,0.0854,0.0782,0.0661,0.0698
MGESLFKGPRDYNPISSSICHLTNESDGHTTNLYGIGFGPFIITNKHLFRRNNGTLVVQSLHGVFKVKDTTTLQQHLVDGRDMIIIRMPKDFPPFPQKLKFREPQREERICLVTTNFQTKSMSSMVSDTSCTFPSGDGIFWKHWIQTKDGQCGSPLVSTRDGFIVGIHSASNFTNTNNYFTSVPKNFMELLTNQEAQQWVSGWRLNADSVLWGGHKVFMVKPEEPFQPVKEATQL [S32N],0.0922,,0.0858,,,0.0321,0.0807,0.0949,0.0982,0.104,0.0771,0.0781,0.0779,0.0784,0.0952,,0.106,,
MGESLFKGPRDYNPISSSICHLTNESDSHTTSLYGIGFGPFIITNKHLFRRNNGTLVVQSLHGVFKVKDTTTLQQHLVDGRDMIIIRMPKDFPPFPQKLKFREPQREERICLVTTNFQTKSMSSMVSDTSCTFPSGDGIFWKHWIQTKDGQCGSPLVSTRDGFIVGIHSASNFTNTNNYFTSVPKNFMELLTNQEAQQWVSGWRLNADSVLWGGHKVFMVKPEEPFQPVKEATQL [G28S],0.082,0.0918,0.0924,,0.087,0.0842,0.0976,0.0705,0.106,,0.13,0.0956,0.082,0.0823,0.0405,0.0839,,,
MGESLFKGPRDYNPISSSICHLTNESDGHTTSLYGNGFGPFIITNKHLFRRNNGTLVVQSLHGVFKVKDTTTLQQHLVDGRDMIIIRMPKDFPPFPQKLKFREPQREERICLVTTNFQTKSMSSMVSDTSCTFPSGDGIFWKHWIQTKDGQCGSPLVSTRDGFIVGIHSASNFTNTNNYFTSVPKNFMELLTNQEAQQWVSGWRLNADSVLWGGHKVFMVKPEEPFQPVKEATQL [I36N],0.0711,0.0848,0.0852,0.0765,0.0593,0.0581,0.0814,0.0661,0.0772,0.0882,0.078,0.0761,0.0589,0.0736,0.0566,0.0676,0.084,,0.063
MGESLFKGPRDYNPISSSICHLTNESDGHTTSLYGCGFGPFIITNKHLFRRNNGTLVVQSLHGVFKVKDTTTLQQHLVDGRDMIIIRMPKDFPPFPQKLKFREPQREERICLVTTNFQTKSMSSMVSDTSCTFPSGDGIFWKHWIQTKDGQCGSPLVSTRDGFIVGIHSASNFTNTNNYFTSVPKNFMELLTNQEAQQWVSGWRLNADSVLWGGHKVFMVKPEEPFQPVKEATQL [I36C],0.0999,0.102,0.117,0.108,,0.0609,0.0951,0.0937,0.111,0.133,0.105,0.106,0.117,,0.0827,0.118,,,
MGESLFKGPRDYNPISSSICHLTNESDGHTTSLYGILFGPFIITNKHLFRRNNGTLVVQSLHGVFKVKDTTTLQQHLVDGRDMIIIRMPKDFPPFPQKLKFREPQREERICLVTTNFQTKSMSSMVSDTSCTFPSGDGIFWKHWIQTKDGQCGSPLVSTRDGFIVGIHSASNFTNTNNYFTSVPKNFMELLTNQEAQQWVSGWRLNADSVLWGGHKVFMVKPEEPFQPVKEATQL [G37L],0.0714,0.0758,0.0978,,,0.0756,0.0646,0.0676,,0.107,0.107,0.0096,0.0798,0.0456,,0.0561,0.0954,,
